Measurements from the supplement of paper PMC4967469.

Key:
Assay in all cases: Viability of human cancer cell lines after 72 h of drug (GDSC screen)
Epothilone B = compound: C/C(=C\c1csc(C)n1)[C@@H]1C[C@@H]2O[C@]2(C)CCC[C@H](C)[C@H](O)[C@@H](C)C(=O)C(C)(C)[C@@H](O)CC(=O)O1 [Epothilone B]; settings: top dose 0.032 µM; top dose inferred
Procedure: (§1)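 Human cancer cell lines in 384-well plates, medium with 10% serum, drug for 72 h over a 256-fold dose range (nine 2-fold or five 4-fold steps up to the top dose). Adherent lines were fixed and stained with the nucleic acid dye Syto60, suspension lines read with resazurin; signal relative to control wells, capped at 0 and 100%. One two-parameter sigmoid per drug and line, fitted in a mixed model over all curves with the slope shared within a line.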

PHA-793887 = compound: CC(C)CC(=O)Nc1n[nH]c2c1CN(C(=O)C1CCN(C)CC1)C2(C)C [PHA-793887]; settings: top dose 10.24 µM
Procedure: as §1

PLX4720 = compound: CCCS(=O)(=O)Nc1ccc(F)c(C(=O)c2c[nH]c3ncc(Cl)cc23)c1F [PLX4720]; settings: top dose 10 µM
Procedure: as §1

Pyrimethamine = compound: CCc1nc(N)nc(N)c1-c1ccc(Cl)cc1 [Pyrimethamine]; settings: top dose 20 µM; top dose inferred
Procedure: as §1

AZD-0530 = compound: CN1CCN(CCOc2cc(OC3CCOCC3)c3c(Nc4c(Cl)ccc5c4OCO5)ncnc3c2)CC1 [AZD-0530]; settings: top dose 2 µM
Procedure: as §1

Y-39983 = compound: C[C@@H](N)c1ccc(C(=O)Nc2ccnc3[nH]ccc23)cc1 [Y-39983]; settings: top dose 20 µM; top dose inferred
Procedure: as §1

TPCA-1 = compound: NC(=O)Nc1sc(-c2ccc(F)cc2)cc1C(N)=O [TPCA-1]; settings: top dose 20 µM
Procedure: as §1

[1] = screen: GDSC drug entry 1371, top dose inferred

Row | Cell Line | AUC (Epothilone B) | IC50 (Epothilone B) [µM] | AUC (PHA-793887) | IC50 (PHA-793887) [µM] | AUC (PLX4720; screen: GDSC drug entry 1036) | IC50 (PLX4720; screen: GDSC drug entry 1036) [µM] | AUC (PLX4720; [1]) | IC50 (PLX4720; [1]) [µM] | AUC (Pyrimethamine) | IC50 (Pyrimethamine) [µM] | AUC (AZD-0530) | IC50 (AZD-0530) [µM] | AUC (Y-39983) | IC50 (Y-39983) [µM] | AUC (TPCA-1) | IC50 (TPCA-1) [µM]
1 | SIMA (neuroblastoma, adherent) | 0.812 | 0.0201 | 0.944 | > 10.2 | 0.985 | > 10 | 0.984 | > 10 | 0.935 | > 20 | 0.978 | > 2 | 0.962 | > 20 | 0.775 | 9
2 | SJSA-1 (bone, adherent) | 0.546 | 0.00271 | 0.795 | 5.44 | 0.978 | > 10 | 0.982 | > 10 | 0.658 | 3.66 | 0.975 | > 2 | 0.916 | > 20 | 0.915 | > 20
3 | SK-ES-1 (Ewing sarcoma, semi-adherent) | 0.614 | 0.00421 | 0.706 | 2.55 | 0.919 | > 10 | 0.97 | > 10 | 0.656 | 3.49 | 0.984 | > 2 | 0.931 | > 20 | 0.728 | 5.83
4 | SK-LMS-1 (soft tissue, adherent) | 0.342 | 0.000746 | 0.896 | > 10.2 | 0.944 | > 10 | 0.924 | > 10 | 0.968 | > 20 | 0.987 | > 2 | 0.935 | > 20 | 0.809 | 9.82
5 | SK-MEL-1 (melanoma, suspension) | 0.993 | > 0.032 | 0.993 | > 10.2 | 0.573 | 0.959 | 0.838 | 5.51 | 0.985 | > 20 | 0.989 | > 2 | 0.992 | > 20 | 0.944 | > 20
6 | SK-MM-2 (myeloma, suspension) | 0.815 | 0.0187 | 0.851 | 8.38 | 0.986 | > 10 | 0.986 | > 10 | 0.979 | > 20 | 0.987 | > 2 | 0.869 | 19.8 | 0.709 | 5.02
7 | SK-N-DZ (neuroblastoma, adherent) | 0.704 | 0.00742 | 0.988 | > 10.2 |  |  | 0.974 | > 10 | 0.943 | > 20 | 0.869 | 1.81 | 0.942 | > 20 | 0.872 | 18.6
8 | SK-N-FI (neuroblastoma, adherent) | 0.978 | > 0.032 | 0.977 | > 10.2 | 0.99 | > 10 | 0.988 | > 10 | 0.986 | > 20 | 0.98 | > 2 | 0.987 | > 20 | 0.896 | > 20
9 | SK-PN-DW (Ewing sarcoma, adherent) | 0.454 | 0.00149 | 0.75 | 3.46 | 0.906 | > 10 | 0.979 | > 10 | 0.942 | > 20 | 0.963 | > 2 | 0.905 | > 20 | 0.623 | 2.76
10 | SK-UT-1 (soft tissue, adherent) | 0.335 | 0.000731 | 0.908 | > 10.2 | 0.938 | > 10 | 0.98 | > 10 | 0.979 | > 20 | 0.967 | > 2 | 0.981 | > 20 | 0.987 | > 20
11 | SLVL (B-cell lymphoma, suspension) | 0.725 | 0.00912 | 0.483 | 0.575 | 0.979 | > 10 | 0.972 | > 10 | 0.679 | 4.09 | 0.985 | > 2 | 0.887 | > 20 | 0.654 | 3.43
12 | SNB75 (glioma, adherent) | 0.539 | 0.00268 | 0.921 | > 10.2 | 0.971 | > 10 | 0.973 | > 10 | 0.866 | > 20 | 0.848 | > 2 | 0.832 | > 20 | 0.899 | > 20
13 | SNU-C1 (large intestine, suspension) | 0.902 | > 0.032 | 0.97 | > 10.2 | 0.905 | > 10 | 0.97 | > 10 | 0.904 | > 20 | 0.958 | > 2 | 0.963 | > 20 | 0.923 | > 20
14 | SR (lymphoid neoplasm, suspension) | 0.508 | 0.0021 | 0.366 | 0.285 |  |  | 0.919 | > 10 | 0.882 | 17.6 | 0.962 | > 2 | 0.218 | 0.209 | 0.456 | 0.961
15 | SU-DHL-4 (B-cell lymphoma, suspension) | 0.94 | 0.0282 | 0.831 | 4.16 | 0.994 | > 10 | 0.997 | > 10 | 0.785 | 6.19 | 0.925 | 1.54 | 0.927 | 15.7 | 0.847 | 8.94
16 | SU-DHL-6 (B-cell lymphoma, suspension) | 0.511 | 0.00212 | 0.188 | 0.107 | 0.976 | > 10 | 0.995 | > 10 | 0.755 | 5.3 | 0.859 | 1.02 | 0.876 | 11.5 | 0.54 | 1.57
17 | SU-DHL-8 (B-cell lymphoma, suspension) | 0.709 | 0.00742 | 0.621 | 1.35 | 0.984 | > 10 | 0.965 | > 10 | 0.801 | 9 | 0.98 | > 2 | 0.562 | 1.82 | 0.607 | 2.41

The IC50 comes from the fitted curve, where viability falls to half of the control; where the fit passes the top or lowest dose, that dose stands as a limit. AUC is the area under the same curve over the 256-fold range up to the top dose, as a fraction; values near 1 show little effect. For some of these results: The top dose, if marked as inferred, is not printed in the source and was worked back from the curve model. For some of these results: Where an entry number is given, a second screen of the drug exists; the two often differ.
